# Reference: PubChem BioAssay AID686978 (National Center for Advancing Translational Sciences (NCATS), 2013)
# Hit rate of the full screen: of about 420,000 compounds, about 64,000 (15%) were called active. Inconclusive means that the source gave no clear call. Such entries were picked first, then a sample of the others. The call rests on the fitted dose curve; in most records, active means well fitted inhibition curve with a large enough effect; inconclusive means small, poorly fitted or top-dose-only effect; inactive means flat fitted curve, though single readings scatter. Potencies of inconclusive entries are left out as doubtful fits.
# Experiment: qHTS for Inhibitors of human tyrosyl-DNA phosphodiesterase 1 (TDP1): qHTS in cells in absence of CPT; further: nearly all actives have a fitted effect of over 55% in size
# Conditions: DT40 Tdp1-/- hTDP1 cells, no CPT, ATP luminescence, 48 h; series mostly up to 46.2 µM
# Procedure, shortened: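 A cellular qHTS used chicken DT40 cells lacking endogenous Tdp1 but carrying stably transfected human TDP1. Compounds were applied without camptothecin, and cell growth kinetics were judged by ATP-dependent luminescence after ≥48 hr.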
# Potency means the concentration at half of the fitted maximal effect; tags describe the fitted curve by direction and shape.
row,Structure (SMILES),Potency
1,COc1ccc(CCC(C)NCc2cccc(Br)c2)cc1 (configuration not stated),"inconclusive [inhibitor, single point]"
2,O=C(CN1CCN(S(=O)(=O)c2ccccc2)CC1)Nc1ccc([N+](=O)[O-])cc1,active: 11.6 µM
3,CCc1cccc2sc(N(CCCN3CCOCC3)C(=O)CS(=O)(=O)c3ccccc3)nc12,"inconclusive [inhibitor, single point]"
4,COc1ccc2nc(N(CCN(C)C)C(=O)c3ccc4ncsc4c3)sc2c1,inactive
5,COc1ccccc1-n1c(CNC(=O)c2ccc(S(=O)(=O)N3CCCCC3)cc2)n[nH]c1=S,inactive
6,CSc1cccc(NC(=O)c2ccc(CN3CCc4ccccc4C3)cc2)c1,inactive
7,CCc1ccccc1NC(=O)C(=O)NCC(c1cccnc1)N1CCN(c2ccccc2F)CC1 (configuration not stated),active: 14.6 µM
8,COc1ccc(OC)c(S(=O)(=O)N2c3cc(F)ccc3CCC2C)c1 (configuration not stated),"inconclusive [inhibitor, partial curve, poor fit]"
9,CN(C)c1ccc(-c2nc3ccccn3c2/N=C/c2ccc(Br)cc2)cc1,"inconclusive [inhibitor, single point]"
10,Cc1ccccc1OC/C(O)=C(\C#N)c1nc2ccccc2[nH]1,"inconclusive [inhibitor, full curve]"
11,Oc1ccc(F)cc1-c1cc(-c2ccc3c(c2)OCCO3)n[nH]1,"inconclusive [inhibitor, partial curve, poor fit]"
12,CCOc1ccc(S(=O)(=O)Nc2ccc(OC)nc2)cc1,active: 23.1 µM
13,CCCSc1nc2sc3c(c2c(=O)n1Cc1ccccc1)CC(C)(CC)OC3 (configuration not stated),active: 11.6 µM
14,CCOc1ccccc1NC(=O)CSc1nc2cc(O)ccc2c(=O)n1-c1ccc(OC)c(OC)c1,"inconclusive [inhibitor, single point]"
15,Cc1ccc(NC(=O)C2CCC(CNS(=O)(=O)c3csc(C(N)=O)c3)CC2)cc1Cl (configuration not stated),"inconclusive [inhibitor, full curve]"
16,Cc1csc2nc(CNC(=O)C3CC=CCC3C(=O)O)cn12 (configuration not stated),inactive
17,COc1ccc(NC(=O)CSc2cc(C)nc3c(-c4ccccc4)cnn23)cc1,"inconclusive [inhibitor, single point]"
18,COc1ccc(C2(CNC(=O)C(=O)Nc3ccc(F)cc3)CCCC2)cc1OC,active: 18.4 µM
19,COc1ccc(-n2nnc3c(SCC(=O)c4ccccc4)ncnc32)cc1,"inconclusive [inhibitor, partial curve]"
20,CCCCC(=O)N(C)c1c(CC)nc2c(OCC(=O)C(C)(C)C)cccn12,inactive
21,Cc1nc(SCC(=O)Nc2cc(C)on2)c2c3c(sc2n1)CCCC3,inactive
22,O=C(Cc1ccc([N+](=O)[O-])cc1)N1CCCc2ccccc21,"inconclusive [inhibitor, single point]"
23,Cc1ccc(C2(C)NC(=O)N(CC(=O)N(C)CC(=O)Nc3cccc(F)c3)C2=O)cc1 (configuration not stated),"inconclusive [inhibitor, partial curve, poor fit]"
24,Brc1cccc[n+]1CCCCCC[n+]1ccccc1Br,active: 17.8 µM

row,Structure (SMILES),Potency
1,C/C(=N\OC(=O)c1ccccc1)c1cc(-c2ccc(Cl)cc2)no1,"inconclusive [inhibitor, partial curve, poor fit]"
2,Cc1ccc(NS(=O)(=O)c2ccc3c(c2)CCCN3C(=O)C2CCC2)c(C)c1,"inconclusive [inhibitor, single point]"
3,CC1=NN(C(=O)c2ccncc2)C(=O)C1N=Nc1ccc2ccccc2c1 (configuration not stated),"inconclusive [inhibitor, single point]"
4,COc1cc(OC)cc(C(=O)NCC(=O)OCC(=O)Nc2ccc(C)c(S(=O)(=O)N3CCOCC3)c2)c1,inactive
5,CCC(C)c1nc2c(c(N3CCC3=O)c1-c1ccccc1)CCCC2 (configuration not stated),"inconclusive [inhibitor, single point]"
6,CCOC(=O)c1c(S(=O)(=O)NCC(=O)Nc2cc(C)ccc2C)c(C)n(C)c1C,inactive
7,CC(NC(=O)C(c1ccccc1)c1ccccc1)c1ccc(S(N)(=O)=O)cc1 (configuration not stated),inactive
8,Cn1c(=O)c2c(ncn2CC(=O)N/N=C/C(Cl)=C/c2ccccc2)n(C)c1=O,"inconclusive [inhibitor, single point]"
9,CCCCS/C(N)=N/N=C/c1ccccc1O,"inconclusive [inhibitor, single point]"
10,Cc1cc(C)n(-c2ccc(C(=O)Nc3ccc(C)c(S(=O)(=O)N(C)C)c3)cc2)n1,"inconclusive [inhibitor, single point]"
11,COc1cccc(C(=O)Nc2ccc(Cl)c(C(F)(F)F)c2)c1,"inconclusive [inhibitor, single point]"
12,Cc1ccc(S(=O)(=O)CCC(=O)Nc2ccc3nc(C)sc3c2)cc1,"inconclusive [inhibitor, single point]"
13,NS(=O)(=O)c1ccc(NC(=O)c2ccc(Cl)c(S(=O)(=O)NCc3ccco3)c2)cc1,inactive
14,COc1c2c(nc3ccccc13)OC(C(C)(O)CO)C2 (configuration not stated),inactive
15,C#CCNC(=O)C1=C[C@H](c2ccc(Br)cc2)[C@@H](CCCO)[C@H](OCC)O1,active: 13 µM
16,O=C1/C(=C/c2cccnc2)CCc2c1[nH]c1ccccc21,"inconclusive [inhibitor, single point]"
17,CCc1nn2c(=O)cc(COC(=O)c3ccco3)nc2s1,inactive
18,COc1cc(C(=O)Nc2ncccc2C)ccc1OCC(=O)N1CCOCC1,inactive
19,COc1ccc(C2SCCN2S(=O)(=O)c2ccccc2)cc1 (configuration not stated),"inconclusive [inhibitor, single point]"
20,O=c1[nH]cnc2sc(-c3ccccc3)cc12,inactive
21,Cc1cccc(-n2c(SCC(=O)N3CC(=O)Nc4ccccc43)nc3ccccc3c2=O)c1,active: 23.1 µM
22,CCOC(=O)c1cc2sccc2n1CC(=O)N1CCN(C(=O)c2ccco2)CC1,inactive
23,CCc1nc2ccc(C(=O)N3CCN(S(=O)(=O)CC)CC3)cn2c1N(C)Cc1cccs1,"inconclusive [inhibitor, single point]"
